Hit rate of the full screen: of about 150,000 compounds, about 540 (0.36%) showed an effect of 50% or more. The list shows a part of the results.
Test system: Plasmodium falciparum
Assay: Primary screen in NF54 nanoGlo assay, in single point, at 2uM, 72h; a lower Z score goes with more inhibition
Assay type: functional, Erythrocyte
Settings: timepoint 72 hour

| SMILES | % Inhibition | Z score |
| --- | --- | --- |
| Cc1ccc(Cl)cc1S(=O)(=O)N1CCCN(C2CCC2)CC1 | -8% | 1.3 |
| CCN1CCC(N(C(=O)Cc2ccccc2OC(C)C)C2CC2)CC1 | -1% | 0.2 |
| O=C(COC(=O)Cc1ccc(O)cc1Cl)NCC1CCCCC1 | -9% | 1.82 |
| COCCN1CCN([C@@H](C)C(=O)N(C)C(C)C)CC1=O | -5% | 0.65 |
| Cn1nncc1CN[C@H]1CCCC[C@@H]1F | -20% | 2.34 |
| Cc1noc(C)c1C(=O)NCC1CCN(Cc2cnc(-c3ccco3)nc2)CC1 | 8% | -1.12 |
| N#Cc1ccccc1Oc1ccc(C(=O)Nc2nnc[nH]2)cc1Cl | 7% | -0.82 |
| CC1CCCc2ccccc2C1NS(=O)(=O)c1cnnn1C (centres undefined) | -1% | 0.06 |
| O=C1c2ccccc2N[C@]2(C(=O)Nc3cc(F)ccc32)N1C1CC1 | 7% | -1.24 |
| O=C(c1cccc(Oc2ccccc2)c1)N1[C@H]2CCNC[C@@H]1CC2 | -13% | 1.22 |
| Cc1ccc(Cl)c(NC(=O)Nc2csc3c2CCCC3)c1 | 2% | -0.25 |
| Cn1nnnc1-c1ccccc1NC(=O)C[C@H]1CCCO1 | -8% | 1.19 |
| CCOC(=O)Cc1c(C)nc2ncnn2c1N1CCC(C(=O)OCC)CC1 | -9% | 1.18 |
| O=C(Nc1nc2ccccc2s1)c1ccc(-n2cnnn2)cc1 | -12% | 2.36 |
| c1cncc(CNc2nc3cccnc3nc2NCc2cccnc2)c1 | 2% | -0.21 |
| CCCc1nnsc1C(=O)NCc1nccn1C(C)C | -12% | 1.88 |
| O=c1ccc(F)cn1CCC1CCCC1 | -1% | 0.12 |
| CN(Cc1ncc[nH]1)c1nc2c(c(=O)[nH]1)Cc1ccccc1OC2 | -15% | 1.9 |
| Cc1cccc(=O)n1CCCNC(=O)[C@H](C)n1cncn1 | -11% | 1.83 |
| CCc1cn(CC(=O)Nc2ccc(N3CCOCC3)cc2)cn1 | -1% | 0.07 |
| CC[C@H]1CN(C(=O)c2cc(C)ncc2O)CCN1C | -14% | 1.99 |
| Cc1cc(NC(=O)N(CCO)C2CCCCC2)ccn1 | -1% | 0.12 |

| SMILES | % Inhibition | Z score |
| --- | --- | --- |
| O=C(O)[C@H]1CCCN1C(=O)C1CC1c1cccc(C(F)(F)F)c1 (some centres undefined) | -8% | 1.15 |
| CC(C)(CCC#N)CN1CCC(O)(C(F)(F)F)CC1 | 5% | -0.88 |
| Cc1ccc(S(=O)(=O)N[C@@H]2CCCCC[C@H]2O)c(C)c1 | 4% | -0.62 |
| O=C(c1ccncc1F)N1CCCC[C@@H]1CCc1ccccn1 | -23% | 2.29 |
| Cc1cc(Br)c(F)cc1NC(=O)N1CC2CCC(C1)O2 | -6% | 1.16 |
| O=C(c1ccccc1C(F)(F)F)N1CCC(=C2CCC2)CC1 | -8% | 1.2 |
| NC(=O)Cc1n[nH]c(C2(N3CCCC3)CCCC2)n1 | -2% | 0.33 |
| C[C@H](Nc1ccc(C(=O)N2CCC(N3CCOCC3)CC2)cn1)C1CC1 | -19% | 1.93 |
| CCc1nncn1CCNC(=O)Nc1cccc(-c2ncc(C)o2)c1 | -4% | 0.65 |
| COc1cc(NC(=O)c2coc(Br)c2)ncn1 | -12% | 1.49 |
| CN(C)CCc1nc(C2(c3ccccc3)CC2)nn1[C@H]1CCS(=O)(=O)C1 | -3% | 0.34 |
| Cc1csc(C2(NCc3nc(C)c(C)[nH]3)CCOCC2)n1 | -15% | 1.98 |
| COc1cccc(-c2nc(C3CCN(S(=O)(=O)c4ccc(CC(C)C)cc4)CC3)no2)c1 | -7% | 0.81 |
| Cc1nn(CCO)c(N)c1[C@]1(O)C(=O)N(Cc2ccccc2Cl)c2ccccc21 | -5% | 0.81 |
| CCCn1nc(C)cc1CN(C)C(=O)[C@H]1CCc2nn(CC)c(=O)n2CC1 | 5% | -0.71 |
| Cn1cnc(CNC(=O)N2CCC(OC3CCCCC3)CC2)n1 | 2% | -0.22 |
| Cc1ccc2nc(NC(=O)CCn3ccnn3)sc2c1 | 1% | -0.13 |
| O=C(CCc1cn[nH]c1)N1CCC2(CCCCCC2)C1 | -12% | 1.56 |
| CC(C)(C)CN(C(=O)[C@H]1CC12CCS(=O)(=O)CC2)c1ccccc1 | 4% | -0.66 |
| CN(CCCCO)C(=O)[C@H]1N(C(=O)OC(C)(C)C)CC12CCCC2 | 4% | -0.5 |
| NC(=O)C1CCCC1NC(=O)CC1CCC(C(F)(F)F)CC1 (centres undefined) | -2% | 0.31 |
| O=C(Nc1nc2ccccc2n1CCN1CCCCC1)c1cccc(COc2ccc(Cl)cc2)c1 | 1% | -0.19 |

| SMILES | % Inhibition | Z score |
| --- | --- | --- |
| COc1cc(OC)nc(Oc2ccccc2C(=O)Nc2cc(C)cc(Br)c2)n1 | -33% | 3.85 |
| CCOC(=O)c1cn(C)nc1NC(=O)CC1CCC1 | -1% | 0.12 |
| Cc1cnn(CCC(=O)N2C[C@@H]3CC[C@H]2CN(CC(=O)N(C)C)C3)c1 | -2% | 0.37 |
| CC1(C)CN(C(=O)NCCc2cscn2)CCc2ccccc21 | -23% | 3.13 |
| CC(=O)NC1CCC(Nc2ccc(C)cc2OC[C@H]2CCCO2)CC1 (some centres undefined) | -4% | 0.55 |
| CCCc1occc1C(=O)N1CCC2OCC(=O)NC2C1 (centres undefined) | -2% | 0.25 |
| CC1C(=O)CCC1CC(=O)N1CCC(Cc2nc3ccccc3[nH]2)CC1 (centres undefined) | 2% | -0.36 |
| CC(=O)c1cc(CNCCCc2csc(N)n2)n(C)c1 | -4% | 0.77 |
| CC(C)[C@H](O)C1(CNc2ncccc2C#N)CC1 | -6% | 0.54 |
| COc1ccccc1CCNc1cc(C2CC(N)C2)nc(C2CC2)n1 (centres undefined) | 6% | -1.24 |
| COCc1csc(NC(=O)N2CCC(CCc3ccc(F)cc3F)CC2)n1 | -19% | 2.51 |
| Cc1n[nH]c(C)c1CCCNC(=O)Nc1cccc(N2CCN(C)C2=O)c1 | -2% | 0.44 |
| Cc1cnc(N2CCC[C@H](n3ccc(C(F)(F)F)n3)C2)nc1C | -16% | 1.96 |
| Cc1c(CN2C[C@@H]3CC[C@H]2CN(C(=O)c2cccnc2)C3)oc2ccccc12 | -20% | 1.97 |
| O=C(COc1ccccc1Cl)Nc1ccc(-c2nc3cnccc3o2)c(O)c1 | 22% | -2.54 |
| CCC(CC)n1nc(C)cc1NC(=O)Cn1cnnn1 | 4% | -0.81 |
| CC(C)N(C)Cc1nnnn1CC(=O)N(C)C[C@H](O)c1ccccc1 | -4% | 0.55 |
| COc1ccc2c(c1)OCCN([C@@H](C(=O)O)c1ccccc1F)C2 | -18% | 1.99 |
| Cc1nc(C)n(Cc2cc3c(cc2Br)OCCO3)n1 | -14% | 1.34 |
| Cc1cc(CNC(=O)N[C@H](c2nccs2)C(F)(F)F)sc1C | 8% | -1.5 |
| Cn1c(=O)c2cn3c(c2n(C)c1=O)[C@@H](c1c(O)ccc2ccccc12)Nc1ccccc1-3 | -4% | 0.73 |
| COc1ccc(-c2nn3c(NC4CCCC4)cc(C)nc3c2C)cc1OC | 1% | -0.13 |

| SMILES | % Inhibition | Z score |
| --- | --- | --- |
| CC(=O)N1CC[C@H](Nc2nc(-c3ccccc3)nc3ccccc23)[C@@H](O)C1 | -12% | 1.2 |
| c1cn(-c2ccc(CN3CCC4(CC3)OCCO4)cc2)cn1 | 3% | -0.42 |
| NC(=O)[C@H](Cc1ccccc1)n1cnc2ncccc2c1=O | 2% | -0.32 |
| O=C1C[C@H](CNc2nc3nonc3nc2N2CCCCC2)CN1C1CC1 | -13% | 1.61 |
| COCCNCCOc1cc(C)c(Cl)c(C)c1 | 3% | -0.4 |
| CC(C)[C@H](O)C1(CNCc2cc(Br)ccc2Cl)CC1 | 10% | -1.02 |
| CCOc1ccc(NC(C)C(=O)NC2CCCC(C)C2C)cc1S(=O)(=O)N1CCOCC1 (centres undefined) | -10% | 2.01 |
| CCN(C(=O)C(C)C)[C@H](c1ccc(C)cc1)c1c[nH]c2ccccc12 | 15% | -2.26 |
| COC[C@H]1[C@@H](NC(=O)c2cc(C)oc2C)[C@H]2CCO[C@H]21 | -13% | 1.19 |
| Cc1noc(-c2cccnc2NC[C@H](O)CO)n1 | -8% | 0.89 |
| CCOc1ccc(S(=O)(=O)Nc2ccc3c(c2)C(=O)NCCO3)cc1 | -15% | 1.74 |
| CN1CCN(c2cc(C3=CCCCC3)nc(N)n2)CC1 | -4% | 0.62 |
| Cc1ncc2ccc(C(=O)N[C@H]3CCCc4cnn(C(C)C)c43)cn12 | 3% | -0.32 |
| Cc1nc(NCC[C@H]2CCCOC2)c2ccccc2n1 | -7% | 0.68 |
| Cc1ccc(CNC(=O)[C@@H]2CCCCC(=O)N2C)cc1 | -23% | 2.67 |
| CC1CCC2C(CCC(C)N2C(=O)c2cc3nc4c(c(C(F)(F)F)n3n2)CCc2ccccc2-4)C1 (centres undefined) | 30% | -0.09 |
| Oc1cccc(CNCC2(c3ccccc3)CC2)c1 | 3% | -0.28 |
| O=C(CCCc1ncc(-c2ccccc2)o1)NCc1cccnc1N1CCOCC1 | -18% | 3.44 |
| Cc1cc(CN2CCCS2(=O)=O)no1 | 2% | -0.39 |
| O=C(CN1CCCN(C2CC2)CC1)Nc1ccc(C(F)(F)F)cc1 | -7% | 1.01 |
| CCCOCc1nc([C@H]2C[C@@H](c3ccccc3)N3CCC[C@H]23)no1 | 2% | -0.35 |

Reference: ChEMBL document CHEMBL4888484, “Replenishing the malaria drug discovery pipeline: Screening and hit evaluation of the MMV Hit Generation Library 1 (HGL1) against asexual blood stage Plasmodium falciparum ,using a nano luciferase reporter read-out” (2022)
